B1: LINE1-full (parent)
chain: UACGUAGGUGGUUUUCCCCUGAUAGUGCUAAGGGGGCCUGGAAGUUUGGACUGGGCAGAGCUCAACACAGCGUGGCAAAGUGGCUGUGGCUAGACUGCCUCUCUGGAUUCCUCGUCACUCAGCAGGGCAUCUCUGAGAGAAAUGCC

The source gives no read counts; variants with many changes may rest on few reads.

Results on 167 variants are retold here after the RNAGym collection of RNA variant scans (doi:10.7554/elife.90254).

Variants of B1 are the subject of the series. The experiment in a line: self-cleavage, relative activity (ratio to wild type); higher = more cleavage; in vitro, sequencing; the parent is a self-cleaving ribozyme.
On to A69G A107G U115A A129G, for which the self-cleavage came out at 0.
The result for A67G U112C U115A C116U reads 0.65.
In the case of A65G C66U G127A it was 0.02.
Turning to A64G U102C A136G C145G, the self-cleavage was 0.
The result for A67G A79G U85C reads 0; that for A65G A69G G106U C133U, 0.11; that for A64U U119C G122U, 0.49.
As to A64U C84U A136G, the self-cleavage was 0.11.
For the variant A64G U115C U119C, the self-cleavage stood at 0.42.
In the case of A67G U108C G127A it was 0.97; in that of C63U U130C U132C, 0.27.
Turning to A65G A67G A141G, the self-cleavage was 0.27.
The result for A67U U81A A138G A140C reads 0.09; that for A64U U112A U132C, 0.59.
In the case of A65G C120U A129U U132C it was 0.05; in that of A64C A117G A141C, 0.4; in that of A67U U109C A129U, 0.18.
In the case of A65G A77G G114A A141G U143C it was 0.06; in that of A64G A65U A107G, 0; in that of A69G G97A G139A, 0.02.
For the variant A69G U96C A141G, the self-cleavage turned out to be 0.
On to C68U G125U A138G, for which the self-cleavage came to 0.21.
The result for C71U U87A C99U reads 0.01.
Turning to A69G C103U A136G, the self-cleavage amounted to 0.42.
As to C66U A67U C76U U115C, the self-cleavage turned out to be 0.02.
The result for A65G A117U G122U A140G reads 0.04.
Turning to A65G U73A U119C, the self-cleavage came out at 0.06.
The result for A65G U112A C146U reads 0.21.
In the case of A67G U115A G139A, the self-cleavage came out at 0.74.
Regarding A64C U73A U104C A117G A124U, the self-cleavage worked out at 0.68.
The result for C68U U85C A92G reads 0.07; that for A67U U85C A92U U130C, 0.
The result for A69G U73A A78G U87A reads 0; that for A64U G86A A129G, 0.07.
In the case of G70C A117G G144U it was 0.37.
In the case of A65G U102C U112A A142C, the self-cleavage was determined as 0.13.
In the case of A64G G88U A121G it was 0.
As for A69G U134A A141C, the self-cleavage stood at 0.17.
The result for A64U G106U U109C U130C reads 0.28.
In the case of A65U A121U G126A it was 0.11; in that of A69G A78G U119A, 0.
The result for G70U A77U C131A reads 0.05.
Consider A64U A142G U143A, for which the self-cleavage stood at 0.47.
In the case of A69U U130A U132C it was 0.09.
As for A67G A121U A138U, the self-cleavage turned out to be 0.36.
In the case of A67G A79G C101U, the self-cleavage stood at 0.48.
Consider C68U A78C A92C A117G, for which the self-cleavage came to 0.24.
The result for A65G A140G A141G reads 0.12.
In the case of A64G U81A U100C U112C A121C it was 1.06; in that of A65G A69G A140G, 0.
The result for A69U U112C A141G reads 0; that for G70A U87A A142G, 0.02.
For A64G G127A U134G, the self-cleavage amounted to 0.09.
In the case of A67C U130C A142G it was 0.32.
In the case of A64G A69G A124U it was 0.26; in that of A65U G83A U109C, 0.07.
The result for C71U U87C U102C reads 0.07; that for A67U A78G A107G A129G, 0.17.
As to A69G A141G U143C, the self-cleavage was 0.
In the case of A64G A79G A124U it was 0.
In the case of A67U A78G A136G A140G it was 0.08.
In the case of A64G A69G C71U A121C it was 0; in that of A67G U115C U143A, 0.25; in that of A69U U119C A129U, 0.19.
With A67U G72A U112C A124U A129G, the self-cleavage was 0.03.
In the case of A69G U96G U115A it was 0.13; in that of C71U U85C C99U, 0.04; in that of A69G U96A U143C, 0.03.
The result for A67G U85A U102C reads 0.09; that for A64G A69G U132C U143C, 0; that for C71U A117U U132C U143C, 0.56.
The result for A64G A79G G106A U134C U143C reads 0.68.
Turning to A67U U96A U109C G139U, the self-cleavage is 0.02.
The result for A67G U85A U134A reads 0.
The result for A69U A79G U102C reads 0.04; that for A69G U108C A141G, 0.26.
Consider A64G U130C U134C, for which the self-cleavage was 0.
Regarding A64G U81C U87A, the self-cleavage was 0.08.
In the case of A64G U108C U119C U134A C145G it was 0.
In the case of A65G U73A U100G it was 0; in that of A67G G82U U134C U143C, 0.28; in that of A64G G93A G125U, 0.03.
The result for A64C U102A A142G reads 0; that for A64G A78G A129G U143C, 0.51.
With A64G A136U A140G, the self-cleavage came out at 0.23.
In the case of A69G C76U A94G C103U U132C it was 0.03; in that of A65G A107G U115C, 0.26; in that of A67G U73C U85C, 0.
The result for A64G U102C U115C A136G reads 0.46.
In the case of A64G C90U U119A A142G it was 0.03; in that of C63U U115A A138U, 0.32; in that of A67G A79G A141G, 0.75.
For the variant A64G U81G A121U, the self-cleavage stood at 0.35.
In the case of A65G A124G A129U it was 0; in that of A69G G70U U87A U112C, 0.01.
In the case of A67G A107G C123U G127A it was 0.33; in that of A67U U100A A124C A141G, 0; in that of A67U U119C U143C, 0.28.
Take C68U U85C G86A U108C: the self-cleavage was found to be 0.02.
On to C66G A94G A129G, for which the self-cleavage amounted to 0.
The result for C66A G83U A117G A138G A141G reads 0.02; that for G72A A79G U115C, 1.25.
The result for A65U A78G U109A U115C reads 0.08; that for A64U A69G G139C, 0.07.
On to A65G U100C A107G, for which the self-cleavage was 0.
The result for A64U G88A U96C reads 0.04.
In the case of A64C U108C G122A it was 0.38.
The result for G72A C123A U132C reads 1.17; that for A67U U96A U112C, 0.03.
A69U U115A A140G: the self-cleavage is 0.
As to A64U A78G A136G, the self-cleavage amounted to 0.34.
The result for A67G U73A U104A A107G reads 0.81.
In the case of A69U A124G G126A it was 0.04.
In the case of A67U U73A A129G it was 0.1; in that of A69U A92G U100C A107G, 0; in that of A67U U73A U132C A136U, 0.02.
On to A65U U73C A121G, for which the self-cleavage was found to be 0.3.
The result for A67G G93U U102C A140G reads 0.04; that for A64C U85C U109C A136G, 0.
In the case of A69G A79G G97A A140G it was 0.05.
The result for A67U U108C A129U reads 0.19; that for A64G U73A A107G, 0.11.
A67G U81C G93A: the self-cleavage was 0.07.
In the case of C68U A79U A129U C131U it was 0.31; in that of A64G U115A U130C, 0.3.
The result for A65G G83A A94U reads 0.03.
In the case of A67G A124G G127A it was 0.67; in that of A64U C71G A141G A142G, 0.16; in that of C68U A79C A92C, 0.04.
For the variant A65U A79G A107G A124G, the self-cleavage stood at 0.21.
The result for A67U A69G C98A A124G A141G reads 0; that for A65G U104C A140G A142G, 0.
As to A69U C76A A107G G139A, the self-cleavage turned out to be 0.02.
In the case of A64U U87G U104C G127A it was 0.05.
In the case of A65U U115C U119C it was 0.41; in that of A67U A69G C90U, 0.06.
Take A64U A65C G72A: the self-cleavage turned out to be 0.03.
In the case of A69G U134A U143A it was 0.53; in that of A65G U85C U100C U109C G125U U143C, 0.
In the case of A69G U91C U134C it was 0.
The result for A67G G88A U112A U119C U143A reads 0.03; that for A65U A69G A77G, 0.04; that for A67G A78G U87C, 2.51.
On to A64U U102C A124G A140U, for which the self-cleavage amounted to 0.35.
In the case of A64G A65U G82U it was 0.
With A64U U102C A140G, the self-cleavage turned out to be 0.59.
The result for A67G G74A G139U reads 0.26.
Turning to A65G G74A U108C, the self-cleavage was 0.01.
In the case of A67U U109C A142G U143A it was 0; in that of A69G A78U C131U, 0.61.
For A69G A78U U109C, the self-cleavage is 0.91.
The result for A69U U96C A117G A141G reads 0.13.
In the case of A65G A67G A138G it was 0.
The result for A64G U96C U102C reads 0; that for A64G A65G U112C U115A A140G, 0.92.
As for A67U U100A A141G, the self-cleavage was determined as 0.
The result for A64U U96C U119C reads 0.04.
In the case of A64U A79G G82U A92U C120U A138G it was 0.09; in that of A65U U100A U115C, 0.16.
Take A64G A69U U115C: the self-cleavage came out at 0.09.
In the case of A65G G72U A141G it was 0.04; in that of A64G A107U U134A A141G, 0.16; in that of A65U A77U A117U A124G G126A, 0.13.
The result for A64U A94G U102A reads 0.11.
Regarding A64U A77G C84U, the self-cleavage was found to be 0.12.
The result for A64C A79G C120A A121G A138G reads 0.39; that for A65U U119A A140G, 0.14.
